This is one part of the list. Many values rest on one well or one pass, so single values are uncertain.
What follows are compounds tested on Candida albicans DPL-15 (assay: growth (OD600) after compound treatment (apparently relative to screen median) (relative growth (fraction; screen median 1.02)); DPL-15 is a caspofungin-resistant clinical isolate; higher = more fungal growth (less antifungal activity)). Details: 25 µM; RPMI 1640; 48 h; 30 °C.

| SMILES | growth |
| --- | --- |
| CCOC(=O)C1=C(C)NC(=O)NC1c1ccc(F)cc1 (stereo unspecified) | 1.1 |
| c1ccc(CCCc2cccc(-c3cccnc3)n2)cc1 | 0.789 |
| CCc1ccccc1-n1nc(C)c2c1C(=O)NC2c1ccc2c(c1)OCO2 (stereo unspecified) | 1.12 |
| CCC[C@@H](O)COc1cc2c(cc1C1(c3cc4c(cc3OC[C@H](O)CCC)OCO4)C(=O)Nc3ccc(Br)cc31)OCO2 | 1.05 |
| COCOc1cc(OC)cc(O)c1C(=O)/C=C/c1ccccn1 | 1.03 |
| COC(=O)c1cc2c(c3c4ccccc4n(S(=O)(=O)c4ccc(C)cc4)c13)C(=O)N(Cc1ccccc1)C2 | 0.98 |
| COc1cc(C2NC(=O)N3CCC=CC3=C2C(C)=O)c(F)c(C(F)(F)F)c1 (stereo unspecified) | 1.06 |
| COc1ccccc1NS(=O)(=O)c1c(C(=O)N2CCCC2)c(C)n(C)c1C | 0.985 |
| Cn1nc2c(c1-c1ccccc1)C(c1ccccc1)N(c1ccccc1)C2=O (stereo unspecified) | 0.961 |
| CC(=O)OC[C@H]1O[C@H](c2ccc(C(F)(F)F)cc2)C=C[C@H]1OC(C)=O | 1.03 |
| COC(=O)C/C=C/[C@H](C)[C@@H](NC(=O)C(C)(C)NC(=O)OC(C)(C)C)c1ccccc1 | 0.88 |
| CN1CCN=C(c2ccccc2)C2=C1C(=O)N(c1ccccc1)C2c1ccc(F)cc1 (stereo unspecified) | 1.01 |
| Cc1cc(C2(c3cc(C)c(O)c(C)c3)C(=O)Nc3cc(F)ccc32)cc(C)c1O | 1.13 |
| C=CC[C@@H](Cc1c(OC)cc(O)c(C(=O)c2ccccc2)c1O)C(=C)C | 0.921 |
| COC(=O)[C@]1(CC(C)C)NC=C(C(=O)c2ccccc2)[C@@H]1c1cccs1 | 1.16 |
| O=C1OC(c2ccc(Br)cc2)c2cc(F)cc(OCC(F)(F)F)c21 (stereo unspecified) | 1.21 |
| COC(=O)C1=C(C)N(Cc2ccc(F)cc2)C(=S)NC1c1ccc(Cl)cc1 (stereo unspecified) | 1.03 |
| COc1ccc(CN2C(=O)c3[nH]nc(CC(C)C)c3C2c2ccc(F)cc2)nc1 (stereo unspecified) | 0.961 |
| CC(C)CC1=NCCN(C)C2=C1C(c1cccc(C(F)(F)F)c1)NC2=O (stereo unspecified) | 0.923 |
| COc1ccc(N2C(=O)c3[nH]nc(CC(C)C)c3C2c2ccc3c(c2)OCO3)cc1 (stereo unspecified) | 1.07 |
| COc1ccc(-c2c(C)c(C)cc3cc4c(cc23)OCO4)cc1 | 1.11 |
| COc1ccc(C[C@H]2CO[C@H](c3ccc(OC)c(OC)c3)[C@H]2CO)cc1OC | 1.06 |
| CCCCCCCc1cc(C(F)(F)F)cc(Cl)n1 | 1.04 |
| CC(C)=CC[C@H]1C[C@]23C[C@H](CC=C(C)C)C(C)(C)[C@](CC=C(C)C)(C(=O)C(C(=O)c4ccccc4)=C2OC1(C)C)C3=O | 1.37 |
| C#CCC(C)(C)CNC(=O)[C@@H]1C[C@@H](O)CN1 | 1.06 |
| CC(C)C1=NCCN(C)C2=C1C(c1cccc(C(F)(F)F)c1)N(Cc1ccccc1)C2=O (stereo unspecified) | 1 |

| SMILES | growth |
| --- | --- |
| CC(C)c1nn(-c2ccc(OC(F)(F)F)cc2)c2c1C(c1ccccc1)NC2=O (stereo unspecified) | 1.18 |
| COC(=O)c1[nH]c2ccc(F)cc2c1[C@]12CCN(C(=O)Cc3ccc(C)cc3)[C@H]1Nc1ccccc12 | 1.09 |
| COC(=O)C1=C(C)N(Cc2ccccc2)C(NCc2cc(OC)c(OC)c(OC)c2)=N[C@H]1c1cccc(F)c1 | 0.991 |
| C=CCN1C(=O)[C@H]2[C@H]([C@H]3c4ccccc4[C@]2([C@@H](COC)OC)c2ccccc23)[C@@]1(O)c1ccccc1 | 1.07 |
| COC(=O)C1=C(C)N(Cc2ccc(Br)cc2)C(=S)NC1c1cccc(F)c1 (stereo unspecified) | 0.962 |
| CN(C)/N=C/c1c(O)cc(CO)cc1O | 1.04 |
| CC(=O)[C@@H]1[C@@H](C)N(Cc2ccccc2)C(=O)N[C@H]1c1cccc(C(F)(F)F)c1 | 0.97 |
| COc1cc2c(c(OC)c1OC)C[C@@H]1COC(=O)[C@H]1Cc1c-2cc(OC)c(OC)c1OC | 1.11 |
| COC(=O)C1=C(C)N(Cc2ccc(C(F)(F)F)cc2)C(NCc2cccc(C(F)(F)F)c2)=NC1c1ccccc1 (stereo unspecified) | 1.11 |
| COCOc1cc(O)c2c(=O)cc(-c3ccccc3)oc2c1 | 1.05 |
| COc1cc(OC)c2c(ccc3c(OC)ccc(O)c32)c1 | 1.1 |
| COc1ccc([C@@]23Oc4cc(OC)cc(OC)c4[C@]2(O)[C@H](O)[C@H](C(=O)c2nccn2C)[C@H]3c2ccccc2)cc1 | 1.11 |
| CC1=CCO[C@@]12C(=O)c1cc(Cl)ccc1O[C@@]2(OCCc1ccccc1)c1ccc(Cl)cc1 | 0.859 |
| CC(=O)C1=C2C=CCCN2C(=O)NC1c1ccc(C(F)(F)F)c(F)c1 (stereo unspecified) | 1.05 |
| C[C@@H]1CC[C@H]2C(=O)O[C@H](CN=[N+]=[N-])CN2[C@H]1c1ccc(Br)cc1 | 0.93 |
| COc1cc2c(cc1OC)CN(CCc1ccc(N)cc1)CC2 | 1.09 |
| CC(C)C1=NCCN(C)C2=C1C(c1ccccc1)N(c1ccccc1)C2=O (stereo unspecified) | 0.941 |
| COC(=O)C1=C(C)N(C)C(NCc2ccc(C(F)(F)F)cc2)=NC1c1ccc(Cl)cc1 (stereo unspecified) | 0.978 |
| CC(C)n1cc(Nc2cc(O)cc(O)c2C(=O)N2CCC(F)(F)C2)cn1 | 1.12 |
| CC(C)C[C@@H](O)COc1cc2c(cc1C1(c3cc4c(cc3OC[C@H](O)CC(C)C)OCO4)C(=O)Nc3cc(F)ccc31)OCO2 | 0.739 |
| CC(C)c1c2c(nn1-c1ccccc1)C(=O)NC2c1cccc(C(F)(F)F)c1 (stereo unspecified) | 0.959 |
| C=CC[C@@H](C[C@@]12C[C@H](CC=C)C(C)(C)[C@@](C(=O)c3ccccc3)(C(=O)C=C1O)C2=O)C(=C)C | 1.04 |
| COC(=O)C1=C(C)N(Cc2ccc(Br)cc2)C(=S)NC1c1ccc(OC)cc1 (stereo unspecified) | 1 |
| O=S(=O)(c1ccccc1)N1CCCc2nc(-c3ccc(Br)cc3)ccc21 | 0.931 |
| C=CCN1C(=O)C2=C(C(C(C)C)=NCCN2)C1c1ccccc1 (stereo unspecified) | 0.956 |
